The whole screen tested about 150,000 compounds, of which about 540 (0.36%) showed an effect of 50% or more. The list shows a part of the results.
System: Plasmodium falciparum
Test: Primary screen in NF54 nanoGlo assay, in single point, at 2uM, 72h; a lower Z score goes with more inhibition
Format: functional, Erythrocyte
Conditions: timepoint 72 hour

Structure (SMILES)	% Inhibition [%]	Z score
CC(=O)c1c[nH]c(C(=O)N2CCC[C@H]2c2ccc3c(c2)OCCCO3)c1	-10	1.94
O=C(Nc1cccc(C2OC(=O)N(Cc3cccc(Cl)c3)C2C(=O)NCc2ccccn2)c1)c1ccc(F)cc1 (stereo not drawn)	-6	0.77
CCCS(=O)(=O)c1c(S(=O)(=O)CCC)c2cnccn2c1C(=O)c1ccc(Cl)cc1	-7	0.61
O=S(=O)(c1ccc(Cl)s1)N1CC[C@H](c2ncon2)C1	-2	0.32
COC(=O)c1nc(CCNC(=O)OCC(F)(F)F)sc1C	5	-0.74
CC(C)[C@H](NC(=O)CN(C)CC(=O)NCC(F)(F)F)c1cccs1	-6	0.75
CC(=O)N1CC[C@H](CN(C)Cc2ccc(Cl)c(F)c2)C1	-6	0.73
Cc1ccc(C2CC(NCc3nnn(C)n3)C2)cc1 (stereo not drawn)	-7	0.66
Cc1cc(NC(=O)[C@H](Oc2ccccc2F)c2ccccc2)no1	-12	1.59
CC(C)c1nnc(Cn2c(=O)c(Cl)cc3ccccc32)s1	1	-0.08
Cc1ccccc1OC[C@H](O)C(=O)N1CCN(C(=O)c2ccco2)CC1	-1	0.09
Clc1ccc([C@@H]2CN(Cc3nnsc3Cl)CCO2)cc1	-6	0.63
COc1ccc(NS(=O)(=O)c2cc(-c3cnn4c(C)cc(C)nc34)ccc2OC)c(C)c1	-6	0.57
O=C1N[C@H](c2ccccc2)C(=O)N2C[C@H](O)C[C@@H]12	-6	0.79
CONC(=O)NCCc1cc(C)cc(C)c1	-2	0.44
CC1CN(C(=O)c2nccc3ccccc23)C(C)CO1 (stereo not drawn)	0	0.04
Cc1ccc(NCc2ccc3n2[C@@H](C)CC3=O)cc1	-4	0.51
CCCNC(=O)NCCn1c(C)cnc1C1CCC1	-23	2.64
Cc1cc(C)n(C)c(=O)c1C(=O)NCc1nc(C(C)(C)C)cs1	-5	0.95
O=C1CC[C@@]2(CCN(C(=O)Nc3cccc(Cl)c3)C2)N1	-8	1.16
O=C(C1CCN(c2cc3c(nn2)CCC3)CC1)N1CCN(C(=O)[C@@H]2CCCO2)CC1	6	-0.82
CC1CN(C2CCC(c3ccccc3)CC2)CC(C)O1 (stereo not drawn)	-10	1.9
CC(C)c1cc(N(C)CC(=O)Nc2sccc2C(N)=O)n[nH]1	-9	1.38
O=S(=O)(CCO)CCc1ncc(-c2ccccc2)o1	-8	1.25
O=C(NC(CO)CC1CCCC1)C1Cc2ccccc2O1 (stereo not drawn)	5	-0.48
CCNc1ccc(Cl)cc1C(=O)N1C[C@H]2CN(C)C[C@H]2C1	0	0.05
CCCCn1c(C(=O)NCC(C)C)cc2cc(NC(=O)c3ccc(F)cc3)ccc21	0	-0.05

Structure (SMILES)	% Inhibition [%]	Z score
CCn1nc(C2CC2)cc1C(=O)N(C)c1nsc2ccccc12	7	-1.08
CC1CCN(c2nc(N3CCC(C)CC3)nc(N3CC4CC(C3)c3cccc(=O)n3C4)n2)CC1 (stereo not drawn)	-5	0.7
CCc1cc(N2CCC[C@H](c3nnc(CN4CCCC4)n3C)C2)nc(C)n1	2	-0.47
Cn1c(=O)c2c(nc(NCCc3ccc(O)cc3)n2Cc2ccc(Cl)cc2Cl)n(C)c1=O	-8	1.25
Cc1ccccc1NC(=O)Cn1cnc2c(NC(C)C)ncnc21	-18	2.23
COc1cc2c(cc1OC)[C@@H](NC(=O)c1cc(C(C)(C)C)[nH]n1)CC2	4	-0.53
CCn1ncnc1[C@H](C)NC(=O)c1cccc(C(C)=O)c1	-20	2.6
C[C@H](CC(=O)O)CC(=O)NCCC1=CCCCC1	-11	2.08
C[C@H]1CCCN(S(=O)(=O)NCCc2cnn(-c3ccccc3)c2)C1	-11	0.99
CN(C)c1noc(CN2CC(O)C(O)C2)n1 (stereo not drawn)	-12	1.8
CCCc1nsc(NC(=O)N2CCC[C@@H]2CCCO)n1	-16	3.12
Cc1ccc(CC(=O)N(C[C@H]2CN(C)CCO2)c2nccs2)cc1	2	-0.21
CN(C)S(=O)(=O)n1cc(/C=C(\NC(=O)c2ccccc2F)C(=O)NC2CC2)c2ccccc21	-12	1.26
Cc1ccc(C)c(/N=C(\NCCc2c(C)nn(C)c2C)NC(=O)c2cccc(F)c2)c1	-1	0.22
O=C(Nc1cc2c(cc1NC(=O)c1cccs1)OCCO2)c1cccc(C(F)(F)F)c1	-4	0.8
CC(C)c1ocnc1C(=O)N[C@@H](C)c1cccc(-n2cccn2)c1	0	0.06
C[C@H]1CCCN(Cc2ccc3ncccc3c2)C1	1	-0.19
CC(C)(C)OC(=O)N1CCN(CC(=O)N2CCNC(=O)C2)C2(CCCCC2)C1	0	0.01
O=c1c2cnccc2ncn1CCC[C@H]1CCOC1	-14	1.55
COc1ccc(OC)c(NC(=O)[C@@H]2CCN(S(C)(=O)=O)c3ccccc3O2)c1	8	-1.04
Cc1cc(C)n(S(=O)(=O)c2ccc3c(c2)OCCO3)n1	39	-5.7
CCN1CC(NC(=O)N2Cc3cccnc3N3CCC[C@@H]3C2)CC1=O (stereo partly drawn)	-4	0.54
COCc1ccc(COC(=O)C[C@@H](CN)CC(C)C)cc1	1	-0.13
O=C1O[C@]2(CCCN(S(=O)(=O)c3ccccc3)C2)c2ccccc21	-14	2.75
CCC[C@H]1CN(C(=O)Cn2cc(C)cn2)C[C@@H]1N	-1	0.18
CC(C)(C)Oc1cc(C(=O)NCc2ccco2)ccn1	-4	0.68
O=C(Nc1ccnc2ccnn12)[C@H]1CC(=O)N(C2CCCCCC2)C1	-11	1.08

Reference: ChEMBL document CHEMBL4888484, “Replenishing the malaria drug discovery pipeline: Screening and hit evaluation of the MMV Hit Generation Library 1 (HGL1) against asexual blood stage Plasmodium falciparum ,using a nano luciferase reporter read-out” (2022)
